PubChem BioAssay AID1768 (National Center for Advancing Translational Sciences (NCATS), 2009)
Where “and” joins values, the source holds several entries; their conditions need not be identical. Identical values can stand only once. Among all 270,000 compounds or so, about 620 (0.23%) were called active. This list was built around the results that the source calls inconclusive (neither active nor inactive); the mix of calls is not that of the screen. The call rests on the fitted dose curve; in most records, active means well fitted inhibition curve with a large enough effect in the polarisation, with a control signal flat (not every such curve was filed as active); inconclusive means small, poorly fitted or top-dose-only effect, or effect the other way, or a change in a side signal; inactive means no such curve, though single readings can be large or run the other way; the % refers to the polarisation. Potencies beside an inconclusive call are fits to weak or partial responses and may not hold up. “Side channel” marks fits to a control or component signal instead of the main read-out.
Potency means the concentration at half of the fitted maximal effect; tags describe the fitted curve by direction and shape or compound fluorescence and quenching.
Wherever FP activity change, negative = inhibition is given: % of control where 0% means no effect.

These molecules were tested against Menin (Homo sapiens) (UniProt O00255) (assay: qHTS Assay for Inhibitors Targeting the Menin-MLL Interaction in MLL Related Leukemias: Competition With Texas Red Labeled MLL-derived Mutant Peptide). Details: fluorescence polarization; FP activity change, negative = inhibition: at 61.6 µM (top of the series).
Chain of UniProt O00255 (O00255 whole entry, looked up): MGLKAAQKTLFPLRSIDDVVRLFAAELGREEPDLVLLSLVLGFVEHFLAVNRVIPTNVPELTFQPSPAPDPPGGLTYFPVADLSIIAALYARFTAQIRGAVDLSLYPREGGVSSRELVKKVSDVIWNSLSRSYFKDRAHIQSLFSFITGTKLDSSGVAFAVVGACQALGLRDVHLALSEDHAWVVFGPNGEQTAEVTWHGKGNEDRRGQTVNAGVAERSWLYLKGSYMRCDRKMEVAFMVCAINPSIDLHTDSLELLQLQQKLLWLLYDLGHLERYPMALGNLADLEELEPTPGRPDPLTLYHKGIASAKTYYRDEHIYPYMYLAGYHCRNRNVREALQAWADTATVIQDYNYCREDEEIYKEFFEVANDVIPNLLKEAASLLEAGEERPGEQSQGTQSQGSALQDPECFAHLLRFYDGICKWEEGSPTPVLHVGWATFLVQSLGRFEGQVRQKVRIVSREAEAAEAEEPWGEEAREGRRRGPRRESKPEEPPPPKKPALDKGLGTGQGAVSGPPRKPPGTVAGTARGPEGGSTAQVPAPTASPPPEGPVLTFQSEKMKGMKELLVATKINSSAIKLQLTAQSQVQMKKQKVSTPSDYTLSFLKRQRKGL
For `COc1ccccc1/C=C/C(=O)NC(=S)NCC1CCCO1` (configuration not stated), the Potency was inconclusive: 35.5 µM [quencher, side channel, single point]. For `CS(=O)(=O)c1ccc(C(=O)Nc2cccc(-c3nc4ccccc4[nH]3)c2)cc1`, the Potency was inconclusive: 14.1 µM [quencher, side channel, partial curve]. `CC(C)NC(=O)NC(=O)CSc1nnc(COc2ccccc2Cl)o1` was tested, and the “FP activity change, negative = inhibition” value was inactive: -1.29%. In the case of `COc1ccccc1C(c1nnnn1C(C)(C)C)N1CCCCCC1` (configuration not stated), the Potency is reported as inconclusive: 15.8 µM [fluorescent, side channel, partial curve]. `COC(=O)c1ccccc1NC(=S)NC(=O)c1cccc2ccccc12` was tested, and the Potency was inconclusive: 22.4 µM [inhibitor, single point]. `Cc1ccc(CSCC(=O)NCc2ccc(F)cc2)cc1` was tested, and the “FP activity change, negative = inhibition” value was inactive: 9.16%. With `N#C/C(=C/c1ccc(O)c(O)c1)C(=O)NCc1ccc(Cl)cc1` the Potency was inconclusive: 31.6 µM [quencher, side channel, single point]. In the case of `CCN(CC)CCn1c(=N)n(CC(=O)c2ccc(C)cc2)c2ccccc21`, the Potency is reported as inconclusive: 12.6 µM [inhibitor, partial curve]. For `CN(C)c1ccc(/C=C/C(=O)c2cccc(Br)c2)cc1`, the Potency was inconclusive: 11.2 µM [inhibitor, partial curve]. For `Cn1c(CCN2CCCCC2)nc2cc(NS(=O)(=O)c3ccc(F)cc3)ccc21`, the “FP activity change, negative = inhibition” value was inactive: 5.19%. In the case of `COC(=O)c1ccc(COc2ccccc2/C=N/NS(=O)(=O)c2ccccc2)cc1`, the Potency is reported as inconclusive: 28.2 µM [quencher, side channel, single point]. In the case of `O=C(Nc1ccc(Br)cn1)c1ccc2ccccc2c1`, the Potency is reported as inconclusive: 35.5 µM [inhibitor, single point]. In the case of `NS(=O)(=O)c1ccc(NC(=O)COC(=O)C2(c3ccc(F)cc3)CCCC2)cc1`, the Potency is reported as inconclusive: 39.8 µM [fluorescent, side channel, single point]. `O=C(COC(=O)c1ccc(F)cc1F)Nc1ccc2[nH]c(=O)[nH]c2c1` was tested, and the “FP activity change, negative = inhibition” value was inactive: 40.9%. In the case of `Cc1cccc(C(=O)Nc2oc(-c3ccccc3)cc2C#N)c1`, the Potency is reported as inconclusive: 31.6 µM [quencher, side channel, single point]. `Nc1ccc(-c2nc3ccc(-c4nc5ccc(N)cc5[nH]4)cc3[nH]2)cc1` was tested, and the Potency was inconclusive: 12.6 µM [quencher, side channel, partial curve] and inconclusive: 8.91 µM [quencher, side channel, partial curve]. In the case of `CC1=NN(c2ccccc2)C(=O)/C1=C\N(O)c1ccccc1`, the Potency is reported as inconclusive: 15.8 µM [quencher, side channel, partial curve]. In the case of `CC(=O)Nc1cccc(OCC(=O)/C=C2\N(C)c3ccccc3C2(C)C)c1`, the Potency is reported as inconclusive: 25.1 µM [fluorescent, side channel, partial curve]. `C=CCn1c(SCC(=O)N2CCc3ccccc3C2)nc2ccccc2c1=O` was tested, and the Potency was inconclusive: 11.2 µM [fluorescent, side channel, partial curve]. For `Cc1cc(C)c(OCCCCCn2ccnc2)c(C)c1`, the Potency was inconclusive: 17.8 µM [fluorescent, side channel, single point]. `O=C(NCCCN1CCCC1)c1cc2c(Cl)nc3ccccc3c2s1` was tested, and the Potency was inconclusive: 39.8 µM [inhibitor, single point]. For `COc1ccc(C2=NOC(C(=O)NCc3cccnc3)C2)cc1OC` (configuration not stated), the Potency was inconclusive: 25.1 µM [inhibitor, single point]. `CCOc1ccccc1-c1nc(-c2cc3ccc(C)cc3[nH]c2=O)no1` was tested, and the “FP activity change, negative = inhibition” value was inactive: 0.233%. For `CN(/N=C/c1ccc2c(c1)OCO2)c1ccccc1`, the Potency was inconclusive: 7.94 µM [quencher, side channel, partial curve]. `CCc1ccc(NC(=O)[C@H](C)NC(=O)C2CCN(C(=O)[C@@H](NC(=O)OC(C)(C)C)C(C)C)CC2)cc1` was tested, and the Potency was inconclusive: 22.4 µM [inhibitor, partial curve]. `CCN(CC)c1ccc(/C=C2/C(=O)N(c3ccc([N+](=O)[O-])cc3)N=C2N2CCOCC2)cc1` was tested, and the Potency was inconclusive: 10 µM [quencher, side channel, partial curve]. `Cc1cc(N2CCN(C)CC2)nc2ccc(NC(=O)CCC(=O)NCCC(C)C)cc12` was tested, and the Potency was inconclusive: 31.6 µM [inhibitor, partial curve]. For `Cc1ccc(NC(=S)NCCN(C2CCCCC2)C2CCCC2)cc1C`, the Potency was inconclusive: 7.94 µM [fluorescent, side channel, full curve, poor fit]. `O=C(c1ccccc1O)N1N=C(C(F)(F)F)CC1(O)c1ccc([N+](=O)[O-])cc1` (configuration not stated) was tested, and the Potency was inconclusive: 12.6 µM [quencher, side channel, partial curve]. For `COc1ccc(-c2cc(C(=O)Nc3ccccc3O)c3ccccc3n2)cc1OC`, the Potency was inconclusive: 20 µM [quencher, side channel, partial curve]. With `COc1cc(NS(=O)(=O)c2ccc(N/C=C(\C#N)c3nc4ccccc4o3)cc2)nc(OC)n1` the Potency was inconclusive: 11.2 µM [quencher, side channel, partial curve]. In the case of `CC(=O)Nc1ccc(Sc2ncccc2C(=O)Nc2ccc(OC(F)(F)F)cc2)cn1`, the “FP activity change, negative = inhibition” value is reported as inactive: 6.51%. For `O=C(O)c1[nH]c2ccccc2c1C(c1cc(Br)ccc1O)c1c(C(=O)O)[nH]c2ccccc12`, the Potency was inconclusive: 20 µM [quencher, side channel, partial curve]. For `CCCCCCCCCCn1c2c(c(=N)c3c1CCC3)CCC2`, the Potency was inconclusive: 3.16 µM [fluorescent, side channel, partial curve]. In the case of `O=C(Nc1ccc(O)cc1)c1ccc(NC(=O)c2cccs2)cc1`, the “FP activity change, negative = inhibition” value is reported as inactive: -15.1%. For `CC1(C)CC(=O)C=C(Nc2ccc(F)c(Cl)c2)C1`, the Potency was inconclusive: 2.82 µM [inhibitor, single point]. `CN(Cc1c(C(=O)N/N=C/c2cc(F)ccc2F)nnn1-c1nonc1N)C1CCCCC1` was tested, and the Potency was inconclusive: 12.6 µM [inhibitor, partial curve].
